# The supplement of paper PMC3334620
# In all, about 33,000 sequences were measured (“E-score (-0.5 to 0.5)”: median about -0.056, highest 2% from about 0.38 on). The list shows a part of the results.
# Target: Stb4 (UniProt P50104)
# Assay: PBM E-score (8-mer binding enrichment) (E-score (-0.5 to 0.5)); higher = stronger / more preferred TF binding; most listed sequences are background and not binding sites
# Conditions: protein concentration: 200 nM; construct: GST-DNA-binding domain
# Method in brief: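 Using PURExpress in vitro transcription/translation, GST-tagged yeast transcription factors were made in full-length or DNA-binding-domain form. These were applied at about 100-200 nM to double-stranded universal all-10-mer Agilent arrays, and bound protein was detected with fluorescent anti-GST. Scans were normalised with masliner before the Universal PBM Analysis Suite assigned E-scores to ungapped eight-base words pooled with their reverse complements.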
row,Sequence,PBM E-score
1,AAAGTGGC,-0.102
2,GATGGGTA,-0.0713
3,AGTGTCCC,0.09
4,ATCAGGTC,-0.119
5,GCTCATAA,0.0116
6,AATAATCG,0.0208
7,CCGTCCCA,-0.0188
8,ATGCTCGA,-0.139
9,ATGATAAT,-0.0531
10,GGCCTGGA,-0.279
11,CACAAGTC,-0.187
12,AGCTTTAC,-0.0918
13,AGGAAGAA,-0.278
14,CGTTGACA,-0.231
15,GAAAGAAC,0.0241
16,ACGGGGAC,0.111
17,AGTGAGAG,-0.141
18,CAGAGACG,-0.159
19,GCCCAGCA,-0.106
20,ACCGCGGA,0.335
21,ACTACCAA,-0.131
22,AGATAACC,0.0152
23,CGGTTGTC,0.162
24,GCGACTAA,-0.108

row,Sequence,PBM E-score
1,ATATCTAC,0.0331
2,GCCTGTAA,-0.15
3,ATCTTCCA,-0.137
4,AGTTATAG,-0.257
5,ATTACCTA,-0.0235
6,AGCTCGAC,-0.0952
7,CCCAGGCC,-0.0781
8,CGGGTAGC,0.37
9,ATATAGCC,0.183
10,CTTGGCAC,-0.236
11,GCCAGAAC,-0.0133
12,ACGTTTGA,0.0329
13,CTTGGCCA,-0.188
14,GACTGGCA,-0.187
15,CAATTGGG,-0.223
16,AGCAATCG,-0.087
17,CTGGGCGC,-0.274
18,AGGATTGA,-0.128
19,AGAACCAA,-0.118
20,ACCCAATC,0.0159
21,ATGGCCGG,0.189
22,CCCGCTCA,0.0831
23,AGAAGGAG,-0.159
24,AACGCCAA,0.0304

row,Sequence,PBM E-score
1,GAGTGATA,-0.0622
2,CATTCCAG,-0.359
3,GGAACCCA,0.15
4,AGTGTGGC,-0.0938
5,ATGTGGCC,-0.095
6,CTCTCTGA,-0.279
7,CTAACCGA,0.401
8,CATTGTTA,-0.256
9,CGCATGGA,-0.105
10,CATTATGG,-0.0751
11,CCTTCGCG,0.019
12,ATCTTGTC,-0.145
13,ATTGCGCA,-0.0152
14,ATTGGTTC,0.0474
15,ATACGGTC,0.129
16,GGACTCGA,0.113
17,TACCACGA,-0.229
18,CGAAGCTC,0.183
19,CAAAACCG,0.0173
20,GATCGAGA,-0.0708
21,AAGCGAGG,-0.0198
22,AGACAGAG,-0.271
23,ATGCAGCC,-0.0412
24,CGGAATGA,0.342

row,Sequence,PBM E-score
1,CGACACAC,0.0505
2,AGGGAAAT,-0.211
3,CGGCAACC,0.33
4,CAGTCTAC,-0.176
5,ACTACTTC,0.0682
6,TGCTCTAA,-0.331
7,GATATATA,0.0492
8,CGCTATGC,-0.102
9,AGGCGCAG,-0.33
10,ACACCACC,0.0149
11,GGCTTCTA,-0.0329
12,ATTCTGTG,0.0711
13,GCCATTCC,0.127
14,TAACATAA,0.119
15,GACCGCTA,0.0181
16,GAATGCTA,0.0561
17,CCTTCATC,-0.0404
18,GGTATAAA,0.177
19,AAAAAATT,0.0787
20,AGTCCCAG,-0.193
21,GGGCCGCA,0.134
22,CCGTTAAC,0.198
